# ± gives the standard deviation of the averaged measurements. The list shows a part of the results.
# System: PfAP2-EXP AP2 domain (GST-tagged)
# Assay: gcPBM binding intensity (ln(normalized median fluorescence intensity)); higher = stronger DNA binding
# In short: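 The binding buffer was 1× PBS containing 1% milk, 0.2 mg/ml BSA, 0.5% salmon testes DNA and 0.03% Triton X-100. In it, GST-tagged P. falciparum DNA-binding domains expressed in E. coli were applied for 1 h to an Agilent 4 × 180k array of primer-extended double-stranded 36-bp intergenic genomic probes plus negative controls. Binding intensity, read with Alexa488 anti-GST antibody and a 488 nm scan, is the highest Masliner-normalised natural-log median intensity across replicate spots of either probe orientation.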
row,Sequence,gcPBM binding intensity (ln)
1,AGGTACTTTTTTAAAACACACATATAATAAATACAC [CACACA_site4730],8.84 ± 0.28
2,TTTATAATTTATATCACACACATATATATATAGTAA [CACACA_site8],8.41 ± 0.45
3,AAATAAATAAATAAATAAACAAATATGTATAAATGG [XGTACX_negctrl_site153],8.62 ± 0.25
4,AATAAATATATATTCACACACAAACATATATATATA [CACACA_site4023],9.79 ± 0.3
5,TATATATATATATATTGTACATATGTAACCTTTTAA [XGTACX_site3914],10 ± 0.29
6,CCTATATAATATATTTGTACTTAATAATTAAAGTGT [XGTACX_site5151],8.56 ± 0.41
7,ATAAGATTAAACATTGCACACAGAAATATATTTTCT [CACACA_site8743],8.61 ± 0.36
8,TTTTTTAGATTACATAAATATAAATATAAATATATA [GTGCAC_negctrl_site459],7.87 ± 0.35
9,TCAACTATCAATATAGTGCATTTTTTTTGGAAAACC [GTGCAC_site9927],8.39 ± 0.34
10,TATCAAAATTAGTATACACACAAAATTAATCAAATA [CACACA_site7117],8.37 ± 0.37
11,TCCCTTTGTATATATATATAAATATATATATATATA [CACACA_negctrl_site157],9.72 ± 0.26
12,AGATTATATAAAAAAGTGCATATTTTCATTTTTTTT [GTGCAC_site9448],8.4 ± 0.3
13,TTTATCGAATATAATAGTACATAAAAAAAAAAAAAA [XGTACX_site1734],8.38 ± 0.47
14,CATTAAAATGGTAAATGTACATATCCATCTTCTCAC [XGTACX_site4636],8.46 ± 0.4
15,ACATTTTTTTTGTGAGTCTTTGCGGCATCAAAATTT [XGTACX_negctrl_site348],8.36 ± 0.2
16,AAAAAAGAAAAAAACTGTACATGATAAATATTTATT [XGTACX_site7270],8.65 ± 0.67
17,TTATGAAGCAGACATGCATGTTATGGCTTAAATAAT [TGCATGCA_site492],9.18 ± 0.59
18,CATTTTTACAACGTTGCACACTTCAAAAGGTTTACA [CACACA_site2760],8.9 ± 0.38
19,TTTTAAATAAAAAAATTAAATTAAAATATATAAAAA [XGTACX_negctrl_site490],8.1 ± 0.33
20,TGTTTATACAATATTTGTACATATATTTTTATTTTT [XGTACX_site4104],8.57 ± 0.43
21,TATAAAAAAAAAAAAAGTACTTAAATATAAATAAAT [XGTACX_site5052],8.57 ± 0.47
22,GATACTCTCTTTTAATGTACAAAATTTTAAAAATTA [XGTACX_site1781],8.8 ± 0.49

row,Sequence,gcPBM binding intensity (ln)
1,GTTCCATGAGTATATACATGCATATATCTAGTTTAT [TGCATGCA_site388],9.04 ± 0.52
2,AATGATATATTATAAACACACAAAGATGAATATATA [CACACA_site2818],8.64 ± 0.47
3,AATTAAAAAAAATACACACACACATACCCATATATA [CACACA_site5767],8.77 ± 0.34
4,ATTCATTCATATGTTACACACACACCCACCCATAAA [CACACA_site9066],9.29 ± 0.6
5,TACCCTCGTATATATATACACACTAAAATACAGACA [CACACA_site4154],8.82 ± 0.52
6,AATTTATGTTTTAAAAGTACTTTTCTAATTTATAAA [XGTACX_site1593],8.44 ± 0.35
7,CTAAAGTAAATTTAAGCACACACAACGAATTTTTAT [CACACA_site8599],8.65 ± 0.45
8,TATGTACAGACATATACACACCTCTATAATCTATAT [CACACA_site6482],8.78 ± 0.39
9,TTATTTATAAACATATGTACTAATACATGATTAACA [XGTACX_site7645],8.35 ± 0.33
10,GACATATATATAAAATGTACATATATATTTACATAT [XGTACX_site7822],8.44 ± 0.37
11,TGATAATAAGCATACACACACACACTAGAAAAAAAA [CACACA_site4558],8.86 ± 0.53
12,TGTTCTTTATTTTATTGTACTTTTAAAATTCCTTTA [XGTACX_site8058],8.95 ± 0.33
13,AAAAAAAAAAGACATGCATACGCTAATTTTTAGTTG [TGCATGCA_site300],8.36 ± 0.49
14,ATATATTTTTAAAAAAATTAAGAATTTTACATCTCC [CACACA_negctrl_site1450],8.09 ± 0.38
15,TATTATAATAAGAAGTGTACGTGTTTTTATAAATAA [XGTACX_site575],8.82 ± 0.085
16,TATAAAAAAAACGAAAAAAAAAAAAAAAATACAGGA [TGCATGCA_negctrl_site585],8.54 ± 0.61
17,ATTATGTTTCTTTTTTTTTTTAAAGGATGTCTTTTT [CACACA_negctrl_site974],8.47 ± 0.54
18,TTTAAGCAAAAACACACACACATATATATATATATA [CACACA_site349],10.1 ± 0.41
19,TATAAATATATATACACACACATATATATTATATAT [CACACA_site596],8.31 ± 0.33
20,AAAAAATGATAATATACACACTTATGGGAGAGCGCA [CACACA_site5398],8.275 ± 0.078
21,AAGTTATATTTGTGTACACATAATTTTATACTAATA [CACACA_site5553],8.83 ± 0.014
22,AATATTAAACAAAATAAATATATAAAAAATAAATAA [GTGCAC_negctrl_site93],8.54 ± 0.33

row,Sequence,gcPBM binding intensity (ln)
1,TATTTAATACGGACTCATAAATCTTAATAAAAAAAA [CACACA_negctrl_site434],8.27 ± 0.33
2,AAAAATAAAATGGACACACACGTTCAAATTTAGATT [CACACA_site5186],8.6 ± 0.56
3,CACGCACAGATATATACACACTTTTATTTAAATAAC [CACACA_site6852],8.7 ± 0.33
4,GGATGCACACAAAAGGGTACATAAGAAAAAAACAGG [XGTACX_site8570],8.89 ± 0.47
5,TTCACTAATAAATACGCACACATATACAGATATATA [CACACA_site4887],8.57 ± 0.16
6,AAATATATATATAGTTGTACATATATCGTATATATT [XGTACX_site7867],8.39 ± 0.3
7,TGGGTAAACAAACACACACACATATATATATATATA [CACACA_site1992],10.1 ± 0.49
8,AGTTGTTACGAACATACACACGAACATAGACACGGA [CACACA_site8102],9.01 ± 0.47
9,ATGAGTGTAATAATATGTACATAACCTACATAATTT [XGTACX_site852],8.57 ± 0.41
10,TTATTTAAATAATATGTACACACATTTAAAAAATTA [CACACA_site8912],8.35 ± 0.3
11,AAAAAAAAATATATAAACACACATATTTATATACAC [GTGCAC_negctrl_site545],8.36 ± 0.31
12,GCACACATATAATAATGTACATATATATATTTAAAA [XGTACX_site4561],8.68 ± 0.26
13,TATTGATTATTTGAATGTACTTATTATATTAAATAT [XGTACX_site1304],8.34 ± 0.24
14,ACACGCACATATATATAAATATATATATATATAAAT [CACACA_negctrl_site1781],8.4 ± 0.47
15,AATAAAAATATTTTTACATGCAAATGTTATATATTT [TGCATGCA_site1056],8.9 ± 0.22
16,ATTCTACACAGACATACACACATATATATATATATA [CACACA_site5826],10.2 ± 0.4
17,AAAAAAAATTATTATGAACACACATTTATTATATTC [CACACA_site8443],8.09 ± 0.3
18,TATATATGTTTATGTAGTACTATATATCCCTTTCTT [XGTACX_site7049],8.66 ± 0.52
19,TAATATGATCTTAATAGTACTTTATTAATAATAACC [XGTACX_site1953],8.33 ± 0.35
20,TAGAATAAGATAGATATACACACCATTATAAATATA [CACACA_site2500],8.53 ± 0.38
21,AAAAAAAAAAGACACACACACAAAAAAAGATATATA [CACACA_site6645],8.51 ± 0.65
22,TTACAAAATAAGAGGCACAAACACAAAAAAAAATAA [CACACA_negctrl_site574],8.68 ± 0.52

row,Sequence,gcPBM binding intensity (ln)
1,ATAAAAATATTACGCACACACAAACTTATTCATTAT [CACACA_site1969],8.56 ± 0.31
2,GTAACTTTATTATACTGTACTATTATATAAGCACAC [XGTACX_site2859],9.01 ± 0.042
3,TTGTTCAAACAAAAAATAAAATAATTGAAAATAAAA [CACACA_negctrl_site812],8.29 ± 0.33
4,ATTACAATATATACGTGTACATATTACCACCGCTAC [XGTACX_site2308],8.93 ± 0.33
5,TGTAAAAAATTTAACACACACATATATATATATATA [CACACA_site2585],10.1 ± 0.41
6,AATGTTTATTTTGTTTGTACATAAAATGAATAAAAT [XGTACX_site1456],8.47 ± 0.29
7,TATATATATTTATGCACACAAAATATATTATAGAAT [CACACA_site3740],8.45 ± 0.35
8,GTTATATATTTTTATGCATGCATTTTTAAATATATA [TGCATGCA_site175],10.1 ± 0.56
9,TTATTCCTTTTCCTTTTTTTTTTTTAACCAAAAAAA [CACACA_negctrl_site309],8.56 ± 0.38
10,TTTATATATATAAATATGTAGATAACAATATTCTGA [TGCATGCA_negctrl_site554],8.16 ± 0.44
11,ATACATAAATTTTGTACACACAAAAAAAAAAAAGCT [CACACA_site1351],8.7 ± 0.45
12,AAAATATACATATATGCATGCATATAAATAAAAAAA [TGCATGCA_site812],9.81 ± 0.11
13,GATAAAACGTTATGCACACGTACGTGAGTATTTATA [CACACA_site1570],8.85 ± 0.13
14,AACAAAACTTTGGATACATGCAAAATTTTTAAATGA [TGCATGCA_site249],8.61 ± 0.39
15,AATGATAAATAAAAAGCATGCAACAAATAAAAATAA [TGCATGCA_site453],9.84 ± 0.22
16,GTTTTTTTGTTTTAAAGTACTTAAAAAAAAAATATA [XGTACX_site6998],8.44 ± 0.35
17,CTTTTATAATTCATATGTACTTATTTTTAACATAGG [XGTACX_site7808],8.71 ± 0.42
18,TGTACATATATATATATATATGTTACTGAAATAAAA [CACACA_negctrl_site1658],8.51 ± 0.28
19,AAGAATAACTTTTATACATGCAGCATAATATATTGT [TGCATGCA_site605],8.9 ± 0.19
20,GGTATACACAAGTATACACACATATAAATATAAATA [CACACA_site7511],8.5 ± 0.45
21,TCTTTTAACACATGTGATATTATTTAATAACAATAA [CACACA_negctrl_site339],8.48 ± 0.43
